Screen size: about 330,000 compounds; about 4,200 (1.3%) were called active. Inconclusive means that the source gave no clear call. Such entries were picked first, then a sample of the others. The call rests on the fitted dose curve; in most records, active means well fitted activation curve with a large enough effect; inconclusive means small, poorly fitted or top-dose-only effect; inactive means no such curve, though single readings can be large or run the other way. Potencies of inconclusive entries are doubtful fits and often do not repeat.
Assay: qHTS screen for small molecules that induce genotoxicity in human embryonic kidney (HEK293T) cells expressing luciferase-tagged ELG1; further: nearly all actives have a fitted effect of over 60% in size; on activity change, positive = activation: % of control where 0% means no effect
Settings: HEK293T ELG1-luciferase reporter, luminescence, 16 h; series mostly up to 46 µM; activity change, positive = activation: at the top concentration
Method in brief: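 Luminescence read-out: rising ELG1-luciferase signal, reflecting elevated ELG1 protein under genetic stress, flags genotoxic compounds. Cells were treated for 16 hr at 37 °C before ONE-Glo detection.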
Potency means the concentration at half of the fitted maximal effect; tags describe the fitted curve by direction and shape.

Structure (SMILES)	Potency	activity change, positive = activation
c1ccc2nc(-c3nccs3)ccc2c1	inconclusive: 23.1 µM [activator, single point]	
Oc1[nH]c2ccccc2c1N=Nc1ccccc1F	inconclusive: 18.4 µM [activator, partial curve]	
Cc1ccc(C(=O)OCC(=O)c2c[nH]c3ccccc23)cc1	inconclusive: 13 µM [activator, partial curve, poor fit]	
O=C(Nc1ccc(Cl)cc1)ON=C1CCCC1	inconclusive: 18.4 µM [activator, partial curve, poor fit]	
O=C(Nc1ccc2ccccc2n1)c1ccccc1Br	inconclusive: 4.11 µM [activator, partial curve]	
CCC(C)(C)NC(=O)C(c1ccc(OC)cc1)N(C(=O)CCC(=O)Nc1cc(C)on1)C(C)(C)C (stereo not given)	inconclusive: 6.51 µM [activator, single point]	
COc1ccccc1-c1cc(C(F)(F)F)nc(S(=O)(=O)CCCC(=O)NCc2ccc(F)cc2)n1	inconclusive: 29.1 µM [activator, partial curve, poor fit]	
O=C(CCCn1nnnc1CN1CCOCC1)N1CCN(c2ccccc2F)CC1		inactive: 13.8%
COC(=O)N/N=C/c1cc(C)n(-c2ccc(Br)cc2)c1C		inactive: 2.39%
Clc1ncccc1-c1nc2ccccc2s1	inconclusive: 14.6 µM [activator, partial curve]	
CN(Cc1ccc(Cl)c(Cl)c1)C(=O)C1CSC2(C)CCC(=O)N12 (stereo not given)		inactive: -1.24%
O=[N+]([O-])c1ccc(/C=N/N/C(=N/c2ccccn2)c2ccccn2)cc1	inconclusive: 23.1 µM [activator, partial curve, poor fit]	
Cc1ccc2nc(-c3ccc(SCC(=O)Nc4cc(C)on4)nc3)[nH]c2c1	active: 1.84 µM	
COCC(=O)n1nc(-c2ccccc2)nc1NCc1ccc(N(C)C)cc1	inconclusive: 20.6 µM [activator, partial curve]	
COc1ccc(Nc2ncccc2C(=O)O)cc1	active: 14.6 µM	
CCCCSc1nc2c(cc1C#N)CCC2	inconclusive: 22.4 µM [activator, single point]	
COc1ccc(NC(=O)c2cc(C)on2)cc1	inconclusive: 3.66 µM [activator, single point]	
CC(=O)c1cccc(NC(=O)COc2ccccc2)c1	inconclusive: 12.6 µM [activator, single point]	
Cc1ccccc1C(=O)O/N=C(\N)Cc1cccs1	inconclusive: 20.6 µM [activator, single point]	
O=C(/C=C/c1cccc([N+](=O)[O-])c1)c1ccco1	inconclusive: 5.17 µM [activator, single point]	
O=C(CC1(O)C(=O)Nc2ccccc21)c1ccccc1O (stereo not given)		inactive: 1.73%
O=C(CNC(=O)C12CC3CC(CC(C3)C1)C2)Nc1ncccc1O		inactive: 1.2%
COc1ccc(-n2c(C)nnc2SCC(=O)Nc2ccccc2F)cc1		inactive: 9.85%

Structure (SMILES)	Potency	activity change, positive = activation
C=CCCC(=O)N1CCCC(C(=O)c2cccc(OC)c2)C1 (stereo not given)		inactive: -0.472%
COc1ccc(C(=O)Nc2ccc(N3CCN(C)CC3)cc2)cc1	inconclusive: 20.6 µM [activator, partial curve]	
COc1ccc(-c2coc3cc(O)cc(O)c3c2=O)cc1	active: 23.1 µM	
COc1ccc(-c2nnc(SCC(=O)N3CCOCC3)o2)cc1	active: 20.6 µM	
Cc1ccc2nc(-c3ccc4c(c3)OCCO4)cn2c1	inconclusive: 0.058 µM [activator, full curve, poor fit]	
COc1cc(C2Nc3cc(Cl)c(S(N)(=O)=O)cc3S(=O)(=O)N2)ccc1OCc1ccccc1 (stereo not given)	active: 16.4 µM	
CCS(=O)(=O)N1CCc2nc(-c3ccccc3)sc2C1	inconclusive: 3.66 µM [activator, partial curve]	
Cc1cccc(C(=O)n2c(=S)nc3cc(C)ccn32)c1	active: 0.461 µM	
COc1ccc(C(=O)Nn2c(SCC(=O)NCc3ccccc3)nc3ccccc3c2=O)cc1	active: 0.082 µM	
COc1ccccc1CNC(=O)Cc1ccccc1	inconclusive: 20.6 µM [activator, partial curve, poor fit]	
CCOC(=O)c1nn(-c2ccccc2)cc1O	inconclusive: 14.6 µM [activator, partial curve, poor fit]	
CCS(=O)(=O)c1ccc(-c2csc(-c3ccccc3Cl)n2)c(Cl)c1Cl	inconclusive: 16.4 µM [activator, partial curve]	
Cc1ccc(CNC(=O)Cn2cnc(C(=O)Nc3ccc(C)c(C)c3)n2)o1	inconclusive: 20.6 µM [activator, partial curve, poor fit]	
N#CCSc1nc2c(c(C3CC=CCC3)c1C#N)CCC2 (stereo not given)	inconclusive: 20.6 µM [activator, single point]	
CN1CCN(CCCNC(=O)c2ccc(/C=C3\Sc4ccccc4N(Cc4ccccc4F)C3=O)cc2)CC1	inconclusive: 29.1 µM [activator, partial curve, poor fit]	
O=[N+]([O-])c1cccc(-c2noc3c2-c2nc(Cc4cccc5ccccc45)sc2CC3)c1	inconclusive: 25.9 µM [activator, single point]	
CCC(=O)C1CCCN(C(=O)CCc2nnc(C3(c4ccc(Cl)cc4)CCC3)o2)C1 (stereo not given)	inconclusive: 23.1 µM [activator, partial curve]	
Cc1occc1C(=O)N=Nc1c(O)[nH]c2ccc(Br)cc12	inconclusive: 10.3 µM [activator, partial curve]	
N#C/C(=C\c1c[nH]c2ccccc12)C(=O)NCC1CCCO1 (stereo not given)	inconclusive: 9.2 µM [activator, partial curve, poor fit]	
Cc1ccc(C(O)Cn2nc(C)cc2C)cc1 (stereo not given)		inactive: 0.622%
CCOC(=O)CSC1=NC(=O)/C(=C/c2ccc(OC)cc2)S1	inconclusive: 20.6 µM [activator, partial curve, poor fit]	
CCOc1ccc2nc(NC3=NC(c4ccc(OC)cc4)CC(=O)N3)nc(C)c2c1 (stereo not given)	inconclusive: 20.6 µM [activator, partial curve, poor fit]	
